Experimental findings from the antibiotic and cytotoxicity screens of Wong et al. (2023) are described below.

SMILES strings stand for the structures. The list shows a part of the results.

One assay has as its system HSkMC. Description: cytotoxicity call (relative viability < 0.9). The conditions noted are these: 10 µM.
A further assay relates to HepG2. Description: cytotoxicity call (relative viability < 0.9). The conditions noted are these: 10 µM.
For another assay, the system named is S. aureus RN4220. Description: growth inhibition call (relative growth <= 0.2). The following applies: 50 µM.

`Cc1ccc(S(=O)(=O)NCC[C@@H]2CC[C@@H](NS(=O)(=O)c3ccccc3Cl)[C@@H](CO)O2)cc1`: the cytotoxicity call in the assay with HSkMC and with HepG2 was “inactive” each time. Besides, the growth inhibition call in the assay with S. aureus RN4220 is “inactive”.

As for `C[C@H]1CN([C@@H](C)CO)C(=O)c2cc(NS(=O)(=O)c3ccc(Cl)cc3)ccc2O[C@H]1CN(C)Cc1ccc(Cl)c(Cl)c1`, the cytotoxicity call in the assay on HSkMC and with HepG2 was “active” in each case. In the assay on S. aureus RN4220, the growth inhibition call is “inactive”.

As for `C[C@@H]1CCCCO[C@@H](CN(C)S(C)(=O)=O)[C@H](C)CN([C@H](C)CO)C(=O)c2cc(NS(=O)(=O)c3ccccc3)ccc2O1`, the cytotoxicity call with HSkMC and with HepG2 was “inactive” throughout. Moreover, in the assay on S. aureus RN4220, the growth inhibition call was “inactive”.

Turning to `CC(C)NC(=O)Nc1ccc2c(c1)C(=O)N([C@H](C)CO)C[C@H](C)[C@H](CN(C)S(=O)(=O)c1ccc(F)cc1)O2`, the cytotoxicity call in the assay on HSkMC and in the assay on HepG2 was “inactive” each time. In the assay with S. aureus RN4220, the growth inhibition call is “inactive”.

Regarding `CCCC#Cc1cnc2c(c1)C(=O)N([C@@H](C)CO)C[C@H](C)[C@H](CN(C)S(=O)(=O)c1cccc(OC)c1)O2`, the cytotoxicity call in the assay on HSkMC and in the assay on HepG2 was “inactive” throughout. Besides, the growth inhibition call with S. aureus RN4220 is “inactive”.

Regarding `COc1ccc2c3c(n(c2c1)C)[C@H](CO)N(CC1CCCCC1)C[C@]13CCN(CC1)Cc1nccs1`, the cytotoxicity call in the assay with HSkMC and with HepG2 was “inactive” each time. The growth inhibition call in the assay on S. aureus RN4220 was “inactive”.

Regarding `C=C1OC(=O)C2=C1O[C@H](/C=C/C)[C@@H](O)[C@@H]2O`, the cytotoxicity call in the assay with HSkMC and with HepG2 was “inactive” each time. The growth inhibition call in the assay on S. aureus RN4220 was “inactive”.

`C[C@H](CO)N1C[C@H](C)[C@H](CN(C)C(=O)Nc2cccc3ccccc23)Oc2c(NS(=O)(=O)c3ccc(F)cc3)cccc2C1=O`: the cytotoxicity call with HSkMC is “active”. Also, in the assay with HepG2, the cytotoxicity call was “inactive”. For the same molecule, the growth inhibition call with S. aureus RN4220 is “inactive”.

Regarding `Clc1ccc(CCC(Cn2ccnc2)Sc2c(Cl)cccc2Cl)cc1` (centres undefined), the cytotoxicity call in the assay with HSkMC and with HepG2 was “inactive” in each case. In addition, in the assay with S. aureus RN4220, the growth inhibition call is “inactive”.

Consider `C[C@H](CO)N1C[C@H](C)[C@@H](CN(C)S(=O)(=O)c2ccc(F)cc2)Oc2ccc(NC(=O)Nc3cccc4ccccc34)cc2CC1=O`, for which the cytotoxicity call with HSkMC and with HepG2 was “inactive” throughout. Besides, in the assay on S. aureus RN4220, the growth inhibition call was “inactive”.

Regarding `C[C@@H]1CN([C@@H](C)CO)S(=O)(=O)c2ccc(C#Cc3ccccc3F)cc2O[C@@H]1CN(C)CC1CCOCC1`, the cytotoxicity call with HSkMC and in the assay with HepG2 was “inactive” each time. Also, the growth inhibition call with S. aureus RN4220 was “inactive”.

Turning to `CC(C)C[C@@H]1NC(=O)[C@@H]2C[C@H](C(=O)NCCCC[N+](C)(C)C)[C@H](c3cccc(OCCO)c3)N2C1=O`, the cytotoxicity call with HSkMC and in the assay on HepG2 was “inactive” in each case. Also, in the assay with S. aureus RN4220, the growth inhibition call is “inactive”.

`C[C@H]1CN([C@@H](C)CO)C(=O)c2cc(NC(=O)Cc3ccccc3)ccc2O[C@@H]1CN(C)S(=O)(=O)c1cccs1`: the cytotoxicity call in the assay on HSkMC and in the assay on HepG2 was “inactive” in each case. Also, the growth inhibition call in the assay with S. aureus RN4220 is “inactive”.

As to `COc1ccc(CN(C)C[C@H]2OCCCC[C@@H](C)Oc3ccc(NS(=O)(=O)c4ccc(OC)cc4)cc3C(=O)N([C@@H](C)CO)C[C@@H]2C)cc1`, the cytotoxicity call with HSkMC and with HepG2 was “inactive” each time. Further, the growth inhibition call with S. aureus RN4220 is “inactive”.

Turning to `Cc1noc(C)c1NC(=O)Nc1cccc2c1O[C@@H](CN(C)C(=O)Nc1cccc3ccccc13)[C@@H](C)CN([C@@H](C)CO)C2=O`, the cytotoxicity call in the assay on HSkMC and in the assay on HepG2 was “inactive” in each case. Also, in the assay on S. aureus RN4220, the growth inhibition call was “inactive”.

Consider `NNC(=O)CS(=O)(=O)c1ccc(Cl)cc1`, for which the cytotoxicity call in the assay with HSkMC and in the assay on HepG2 was “inactive” each time. Also, in the assay on S. aureus RN4220, the growth inhibition call is “inactive”.

Regarding `COc1ccc(C#Cc2ccc3c(c2)[C@]2(C(=O)N3)[C@H](C(N)=O)[C@H]3C(=O)O[C@H](c4ccccc4)[C@H](c4ccccc4)N3[C@@H]2c2ccccc2OCCO)cc1`, the cytotoxicity call in the assay with HSkMC and with HepG2 was “active” throughout. Also, the growth inhibition call in the assay with S. aureus RN4220 is “inactive”.

Turning to `COCC(=O)Nc1ccc2c(c1)C(=O)N(C)[C@@H]1CC[C@@H](CC(=O)NCc3ccccc3Cl)O[C@H]1CO2`, the cytotoxicity call in the assay on HSkMC and in the assay with HepG2 was “inactive” throughout. In the assay on S. aureus RN4220, the growth inhibition call is “inactive”.

Regarding `C[C@@H]1CN([C@H](C)CO)C(=O)c2cc(NC(=O)c3ccccc3)ccc2O[C@@H](C)CCCCO[C@@H]1CN(C)Cc1ccc(C(=O)O)cc1`, the cytotoxicity call with HSkMC and with HepG2 was “inactive” each time. The growth inhibition call in the assay with S. aureus RN4220 is “inactive”.

Consider `COc1ccc(NC(=O)Nc2ccc3c(c2)CC(=O)N([C@@H](C)CO)C[C@@H](C)[C@H](CN(C)S(C)(=O)=O)O3)cc1`, for which the cytotoxicity call with HSkMC and in the assay on HepG2 was “inactive” throughout. In addition, the growth inhibition call in the assay with S. aureus RN4220 was “inactive”.

`CC(C)CCCC(C)N` (centres undefined): the cytotoxicity call with HSkMC and with HepG2 was “inactive” throughout. For the same molecule, in the assay on S. aureus RN4220, the growth inhibition call is “inactive”.

In the case of `Cc1ccc(S(=O)(=O)Nc2ccc3c(c2)C(=O)N([C@@H](C)CO)C[C@H](C)[C@H](CN(C)Cc2ccncc2)OCCCC[C@H](C)O3)cc1`, the cytotoxicity call in the assay on HSkMC and in the assay with HepG2 was “inactive” each time. For the same molecule, the growth inhibition call in the assay on S. aureus RN4220 is “inactive”.

Turning to `OCCN1CCN(CCCN2c3ccccc3Sc3ccc(Cl)cc32)CC1`, in the assay on HSkMC, the cytotoxicity call was “inactive”. Also, in the assay on HepG2, the cytotoxicity call is “active”. Moreover, in the assay with S. aureus RN4220, the growth inhibition call is “inactive”.

On to `COc1ccc(S(=O)(=O)Nc2ccc3c(c2)C(=O)N([C@@H](C)CO)C[C@H](C)[C@H](CN(C)Cc2ccc(C(F)(F)F)cc2)OCCCC[C@@H](C)O3)cc1`, for which the cytotoxicity call in the assay on HSkMC and with HepG2 was “inactive” throughout. Further, the growth inhibition call with S. aureus RN4220 was “inactive”.

Consider `COc1ccc(CN(C)C[C@@H]2Oc3ccc(NC(=O)C4CC4)cc3CC(=O)N([C@H](C)CO)C[C@H]2C)cc1`, for which the cytotoxicity call in the assay with HSkMC and in the assay with HepG2 was “inactive” each time. Also, the growth inhibition call in the assay with S. aureus RN4220 was “inactive”.

Consider `CNNCc1ccc(C(=O)NC(C)C)cc1`, for which the cytotoxicity call with HSkMC and in the assay on HepG2 was “inactive” throughout. In the assay on S. aureus RN4220, the growth inhibition call was “inactive”.

Turning to `COc1ccc(S(=O)(=O)Nc2ccc3c(c2)C(=O)N([C@@H](C)CO)C[C@H](C)[C@@H](CN(C)S(=O)(=O)c2ccc(F)cc2)O3)cc1`, the cytotoxicity call in the assay on HSkMC (human skeletal muscle cells) and with HepG2 was “inactive” each time. In the assay on S. aureus RN4220, the growth inhibition call is “inactive”.

As to `CN(C)CCC(c1ccc(Cl)cc1)c1ccccn1.O=C(O)C=CC(=O)O` (centres undefined), the cytotoxicity call in the assay with HSkMC was “inactive”. In addition, the cytotoxicity call with HepG2 is “active”. In addition, the growth inhibition call in the assay with S. aureus RN4220 was “inactive”.
